Some of the results follow.

This test concerns the target T1, MBP-FoxP1dN (Mus musculus, UniProt P58462 326-579).
T1 sequence: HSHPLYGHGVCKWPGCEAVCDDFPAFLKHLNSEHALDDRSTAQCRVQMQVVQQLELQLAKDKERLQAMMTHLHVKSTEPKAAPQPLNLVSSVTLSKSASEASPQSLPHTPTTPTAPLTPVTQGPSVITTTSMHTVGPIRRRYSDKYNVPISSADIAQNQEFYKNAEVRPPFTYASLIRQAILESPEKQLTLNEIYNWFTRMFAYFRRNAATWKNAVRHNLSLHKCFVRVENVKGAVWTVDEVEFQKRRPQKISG
In words: PD-seq (MBP pull-down with sequencing); 20 mM Tris-HCl pH 7.5, 100 mM NaCl, 1.5 mM MgCl2, 0.4 uM protein, 0.1 uM dsDNA library, 30 min, room temperature, amylose pull-down; high values mean tight binding. The settings on record: protein: recombinant; tags: His6-MBP; chain copies: 2; dsDNA, one strand shown. In a few lines:
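His6-MBP-tagged mouse FoxP3 or FoxP1 fragment lacking the N-terminus, expressed in E. coli, was mixed at 0.4 µM with 0.1 µM Klenow-filled double-stranded degenerate DNA library. Incubation was 30 min at room temperature in Tris pH 7.5 buffer with NaCl and MgCl2. Complexes were caught on amylose resin and washed three times; DNA was released with proteinase K, PCR-barcoded and Illumina-sequenced. Binding is reads-per-million enrichment, pull-down over input, with replicates pooled.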
Regarding “GATGATTGTTCTCCCAGCTGATGAATTCTCGATTTCGAGTAAACAAATTTTCCTAATCTTTCTGTTCAAGCGCCATCTAC”, the binding signal was 0.897 RPM ratio (pull-down/input). The result for “GATGATTGTTCTCCCAGCTGATGAATTCTTATAGTCGAGTAAACAAATTTTCCTAATCTTTCTGTTCAAGCGCCATCTAC” reads 0.944 RPM ratio (pull-down/input); that for “GATGATTGTTCTCCCAGCTGATGAATTTCGTACCTCGAGTAAACAAATTTTCCTAATCTTTCTGTTCAAGCGCCATCTAC”, 0.818 RPM ratio (pull-down/input). On to “GATGATTGTTCTCCCAGCTGATGAATTGGCCGATTCGAGTAAACAAATTTTCCTAATCTTTCTGTTCAAGCGCCATCTAC”, for which the binding signal was 0.843 RPM ratio (pull-down/input).

Consider “GATGATTGTTCTCCCAGCTGATGAATTGCCTATGTCGAGTAAACAAATTTTCCTAATCTTTCTGTTCAAGCGCCATCTAC”, for which the binding signal is 0.918 RPM ratio (pull-down/input).

Turning to “GATGATTGTTCTCCCAGCTGATGAATTAGAAGGTTCGAGTAAACAAATTTTCCTAATCTTTCTGTTCAAGCGCCATCTAC”, the binding signal is 0.838 RPM ratio (pull-down/input). Regarding “GATGATTGTTCTCCCAGCTGATGAATTGGTGAGCTCGAGTAAACAAATTTTCCTAATCTTTCTGTTCAAGCGCCATCTAC”, the binding signal is 0.9 RPM ratio (pull-down/input). “GATGATTGTTCTCCCAGCTGATGAATTCCAGGGATCGAGTAAACAAATTTTCCTAATCTTTCTGTTCAAGCGCCATCTAC”: the binding signal is 0.842 RPM ratio (pull-down/input). The result for “GATGATTGTTCTCCCAGCTGATGAATTAGCGGACTCGAGTAAACAAATTTTCCTAATCTTTCTGTTCAAGCGCCATCTAC” reads 0.819 RPM ratio (pull-down/input); that for “GATGATTGTTCTCCCAGCTGATGAATTGTCAGTTTCGAGTAAACAAATTTTCCTAATCTTTCTGTTCAAGCGCCATCTAC”, 1.02 RPM ratio (pull-down/input). On to “GATGATTGTTCTCCCAGCTGATGAATTCCCATGCTCGAGTAAACAAATTTTCCTAATCTTTCTGTTCAAGCGCCATCTAC”, for which the binding signal is 0.89 RPM ratio (pull-down/input).

“GATGATTGTTCTCCCAGCTGATGAATTGGGGTAATCGAGTAAACAAATTTTCCTAATCTTTCTGTTCAAGCGCCATCTAC”: the binding signal is 1.19 RPM ratio (pull-down/input). For the sequence “GATGATTGTTCTCCCAGCTGATGAATTAGGGCCGTCGAGTAAACAAATTTTCCTAATCTTTCTGTTCAAGCGCCATCTAC”, the binding signal was 0.779 RPM ratio (pull-down/input).

With “GATGATTGTTCTCCCAGCTGATGAATTCCATGGCTCGAGTAAACAAATTTTCCTAATCTTTCTGTTCAAGCGCCATCTAC”, the binding signal was 0.788 RPM ratio (pull-down/input). For “GATGATTGTTCTCCCAGCTGATGAATTTGAATACTCGAGTAAACAAATTTTCCTAATCTTTCTGTTCAAGCGCCATCTAC”, the binding signal was 0.994 RPM ratio (pull-down/input). “GATGATTGTTCTCCCAGCTGATGAATTAGAGACCTCGAGTAAACAAATTTTCCTAATCTTTCTGTTCAAGCGCCATCTAC”: the binding signal was 0.793 RPM ratio (pull-down/input).

With “GATGATTGTTCTCCCAGCTGATGAATTAGATCCTTCGAGTAAACAAATTTTCCTAATCTTTCTGTTCAAGCGCCATCTAC”, the binding signal was 0.861 RPM ratio (pull-down/input). “GATGATTGTTCTCCCAGCTGATGAATTCGAAGCTTCGAGTAAACAAATTTTCCTAATCTTTCTGTTCAAGCGCCATCTAC”: the binding signal was 0.79 RPM ratio (pull-down/input). The result for “GATGATTGTTCTCCCAGCTGATGAATTGGACCCGTCGAGTAAACAAATTTTCCTAATCTTTCTGTTCAAGCGCCATCTAC” reads 0.824 RPM ratio (pull-down/input); that for “GATGATTGTTCTCCCAGCTGATGAATTGGATATGTCGAGTAAACAAATTTTCCTAATCTTTCTGTTCAAGCGCCATCTAC”, 0.918 RPM ratio (pull-down/input); that for “GATGATTGTTCTCCCAGCTGATGAATTGATGTCCTCGAGTAAACAAATTTTCCTAATCTTTCTGTTCAAGCGCCATCTAC”, 1.08 RPM ratio (pull-down/input). For “GATGATTGTTCTCCCAGCTGATGAATTGAATTTATCGAGTAAACAAATTTTCCTAATCTTTCTGTTCAAGCGCCATCTAC”, the binding signal was 1.05 RPM ratio (pull-down/input). Under “GATGATTGTTCTCCCAGCTGATGAATTGATCGCTTCGAGTAAACAAATTTTCCTAATCTTTCTGTTCAAGCGCCATCTAC” stands 0.945 RPM ratio (pull-down/input); under “GATGATTGTTCTCCCAGCTGATGAATTTCCATAGTCGAGTAAACAAATTTTCCTAATCTTTCTGTTCAAGCGCCATCTAC”, 0.784 RPM ratio (pull-down/input); under “GATGATTGTTCTCCCAGCTGATGAATTGGTGGGGTCGAGTAAACAAATTTTCCTAATCTTTCTGTTCAAGCGCCATCTAC”, 0.817 RPM ratio (pull-down/input). The result for “GATGATTGTTCTCCCAGCTGATGAATTTTGAATGTCGAGTAAACAAATTTTCCTAATCTTTCTGTTCAAGCGCCATCTAC” reads 0.964 RPM ratio (pull-down/input); that for “GATGATTGTTCTCCCAGCTGATGAATTCCCAACGTCGAGTAAACAAATTTTCCTAATCTTTCTGTTCAAGCGCCATCTAC”, 0.784 RPM ratio (pull-down/input); that for “GATGATTGTTCTCCCAGCTGATGAATTACGGCGGTCGAGTAAACAAATTTTCCTAATCTTTCTGTTCAAGCGCCATCTAC”, 0.83 RPM ratio (pull-down/input). As for “GATGATTGTTCTCCCAGCTGATGAATTATAACCTTCGAGTAAACAAATTTTCCTAATCTTTCTGTTCAAGCGCCATCTAC”, the binding signal was 1.05 RPM ratio (pull-down/input). The result for “GATGATTGTTCTCCCAGCTGATGAATTCCCTGGTTCGAGTAAACAAATTTTCCTAATCTTTCTGTTCAAGCGCCATCTAC” reads 0.795 RPM ratio (pull-down/input); that for “GATGATTGTTCTCCCAGCTGATGAATTGCACCGTTCGAGTAAACAAATTTTCCTAATCTTTCTGTTCAAGCGCCATCTAC”, 1.1 RPM ratio (pull-down/input).
